In the supplement of paper PMC4967469:
pIC50: −log10 of the molar value. By IC50 is meant the dose at which the fit gives 50% viability; a limit (>, <) means that the fit lies beyond the doses tested. AUC sums up the same curve from the lowest dose to the 256-fold higher top dose: 1 means no effect, lower means more sensitive. Where the top dose is marked as inferred, it was calculated from the reported fits.

Columns and labels:
Test in all cases: Viability of human cancer cell lines after 72 h of drug (GDSC screen)
NG-25 = compound: CCN1CCN(Cc2ccc(NC(=O)c3ccc(C)c(Oc4ccnc5[nH]ccc45)c3)cc2C(F)(F)F)CC1 [NG-25]; conditions: top dose 10.24 µM; top dose inferred
Description: (§1)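 Human cancer cell lines in 384-well plates, medium with 10% serum, drug for 72 h over a 256-fold dose range (nine 2-fold or five 4-fold steps up to the top dose). Adherent lines were fixed and stained with the nucleic acid dye Syto60, suspension lines read with resazurin; signal relative to control wells, capped at 0 and 100%. One two-parameter sigmoid per drug and line, fitted in a mixed model over all curves with the slope shared within a line.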

PFI-1 = compound: COc1ccccc1S(=O)(=O)Nc1ccc2c(c1)CN(C)C(=O)N2 [PFI-1]; conditions: top dose 10 µM; top dose inferred
Description: as §1

GSK-1904529A = compound: CCc1cc(Nc2nccc(-c3c(-c4ccc(OC)c(C(=O)Nc5c(F)cccc5F)c4)nc4ccccn34)n2)c(OC)cc1N1CCC(N2CCN(S(C)(=O)=O)CC2)CC1 [GSK-1904529A]; conditions: top dose 1.024 µM; top dose inferred
Description: as §1

Tipifarnib = compound: Cn1cncc1[C@@](N)(c1ccc(Cl)cc1)c1ccc2c(c1)c(-c1cccc(Cl)c1)cc(=O)n2C [Tipifarnib]; conditions: top dose 16 µM; top dose inferred
Description: as §1

Cell Line | AUC (NG-25) | pIC50 (NG-25) | AUC (PFI-1) | pIC50 (PFI-1) | AUC (GSK-1904529A) | pIC50 (GSK-1904529A) | AUC (Tipifarnib) | pIC50 (Tipifarnib)
HOP-92 (large cell lung carcinoma, adherent) | 0.985 | < 4.99 | 0.82 | 5.16 | 0.971 | < 5.99 | 0.722 | 5.32
HOS (osteosarcoma, adherent) | 0.992 | < 4.99 | 0.855 | 5.22 | 0.992 | < 5.99 | 0.42 | 6.20
HPAC (pancreas, adherent) | 0.777 | 5.22 | 0.954 | < 5.00 | 0.973 | < 5.99 | 0.316 | 6.61
HPAF-II (pancreas, adherent) | 0.918 | < 4.99 | 0.851 | < 5.00 | 0.975 | < 5.99 | 0.712 | 5.32
HSC-2 (head and neck, adherent) | 0.945 | < 4.99 | 0.826 | 5.26 | 0.988 | < 5.99 | 0.75 | 5.31
HSC-3 (head and neck, adherent) | 0.909 | < 4.99 | 0.732 | 5.59 | 0.914 | < 5.99 | 0.674 | 5.55
HSC-4 (head and neck, adherent) | 0.926 | < 4.99 | 0.811 | 5.12 | 0.975 | < 5.99 | 0.807 | 4.93
HT55 (large intestine, adherent) | 0.989 | < 4.99 | 0.973 | < 5.00 | 0.984 | < 5.99 | 0.967 | < 4.80
HT-3 (cervix, adherent) | 0.97 | < 4.99 | 0.823 | 5.22 | 0.987 | < 5.99 | 0.925 | < 4.80
HT-29 (large intestine, adherent) | 0.85 | 5.11 | 0.83 | 5.20 | 0.975 | < 5.99 | 0.459 | 6.11
HT-115 (large intestine, adherent) | 0.987 | < 4.99 | 0.944 | < 5.00 | 0.991 | < 5.99 | 0.983 | < 4.80
HT-1080 (fibrosarcoma, adherent) | 0.886 | 5.03 | 0.956 | < 5.00 | 0.982 | < 5.99 | 0.737 | 5.36
HT-1197 (bladder, adherent) | 0.983 | < 4.99 | 0.846 | 5.03 | 0.931 | < 5.99 | 0.727 | 5.30
HT-1376 (bladder, adherent) | 0.985 | < 4.99 | 0.916 | < 5.00 | 0.974 | < 5.99 | 0.799 | 5.03
HTC-C3 (thyroid, adherent) | 0.838 | 5.09 | 0.805 | 5.24 | 0.977 | < 5.99 | 0.699 | 5.41
HeLa (cervix, adherent) | 0.98 | < 4.99 | 0.92 | < 5.00 | 0.989 | < 5.99 | 0.719 | 5.39
Hep 3B2_1-7 (liver, adherent) | 0.815 | 5.25 | 0.866 | 5.05 | 0.981 | < 5.99 | 0.4 | 6.27
Hs633T (fibrosarcoma, adherent) | 0.836 | 5.29 | 0.868 | 5.19 | 0.991 | < 5.99 | 0.34 | 6.40
Hs683 (glioma, adherent) | 0.955 | < 4.99 | 0.938 | < 5.00 | 0.974 | < 5.99 | 0.625 | 5.65
Hs766T (pancreas, adherent) | 0.983 | < 4.99 | 0.943 | < 5.00 | 0.982 | < 5.99 | 0.886 | < 4.80
Hs939-T (melanoma, adherent) | 0.9 | < 4.99 | 0.937 | < 5.00 | 0.985 | < 5.99 | 0.794 | 5.09

Cell Line | AUC (NG-25) | pIC50 (NG-25) | AUC (PFI-1) | pIC50 (PFI-1) | AUC (GSK-1904529A) | pIC50 (GSK-1904529A) | AUC (Tipifarnib) | pIC50 (Tipifarnib)
Hs940-T (melanoma, adherent) | 0.983 | < 4.99 | 0.919 | < 5.00 | 0.916 | < 5.99 | 0.696 | 5.39
Hs-578-T (breast, adherent) | 0.984 | < 4.99 | 0.89 | < 5.00 | 0.987 | < 5.99 | 0.836 | 4.94
HuCCT1 (biliary tract, adherent) | 0.832 | 5.12 | 0.823 | 5.17 | 0.971 | < 5.99 | 0.646 | 5.57
HuO9 (osteosarcoma, adherent) | 0.958 | < 4.99 | 0.828 | 5.15 | 0.981 | < 5.99 | 0.935 | < 4.80
HuO-3N1 (osteosarcoma, adherent) | 0.977 | < 4.99 | 0.897 | < 5.00 | 0.963 | < 5.99 | 0.697 | 5.36
HuP-T3 (pancreas, adherent) | 0.959 | < 4.99 | 0.799 | 5.22 | 0.973 | < 5.99 | 0.756 | 5.18
HuP-T4 (pancreas, adherent) | 0.815 | 5.22 | 0.688 | 5.66 | 0.984 | < 5.99 | 0.621 | 5.66
IGR-1 (melanoma, adherent) | 0.738 | 5.56 | 0.828 | 5.29 | 0.982 | < 5.99 | 0.567 | 5.83
IGR-37 (melanoma, adherent) | 0.822 | 5.28 | 0.827 | 5.27 | 0.975 | < 5.99 | 0.653 | 5.60
IHH-4 (thyroid, semi-adherent) | 0.875 | 5.17 | 0.864 | 5.22 | 0.991 | < 5.99 | 0.143 | 6.96
IM-95 (stomach, adherent) | 0.852 | 5.06 | 0.959 | < 5.00 | 0.932 | < 5.99 | 0.432 | 6.19
IPC-298 (melanoma, adherent) | 0.872 | 5.02 | 0.754 | 5.48 | 0.979 | < 5.99 | 0.751 | 5.29
J82 (bladder, adherent) | 0.976 | < 4.99 | 0.881 | < 5.00 | 0.98 | < 5.99 | 0.682 | 5.49
JEG-3 (urogenital system, adherent) | 0.991 | < 4.99 | 0.947 | < 5.00 | 0.964 | < 5.99 | 0.738 | 5.36
JHH-1 (liver, adherent) | 0.976 | < 4.99 | 0.753 | 5.44 | 0.943 | < 5.99 | 0.707 | 5.39
JHH-2 (liver, adherent) | 0.846 | 5.08 | 0.928 | < 5.00 | 0.982 | < 5.99 | 0.87 | < 4.80
JHH-4 (liver, adherent) | 0.814 | 5.25 | 0.964 | < 5.00 | 0.931 | < 5.99 | 0.618 | 5.68
JHH-6 (liver, adherent) | 0.857 | 5.07 | 0.86 | 5.06 | 0.972 | < 5.99 | 0.808 | 5.08
JHH-7 (liver, adherent) | 0.853 | 5.14 | 0.844 | 5.19 | 0.972 | < 5.99 | 0.474 | 6.07
JHU-011 (head and neck, adherent) | 0.899 | < 4.99 | 0.893 | < 5.00 | 0.983 | < 5.99 | 0.478 | 6.06
JHU-022 (head and neck, adherent) | 0.899 | < 4.99 | 0.839 | 5.02 | 0.974 | < 5.99 | 0.846 | < 4.80

Cell Line | AUC (NG-25) | pIC50 (NG-25) | AUC (PFI-1) | pIC50 (PFI-1) | AUC (GSK-1904529A) | pIC50 (GSK-1904529A) | AUC (Tipifarnib) | pIC50 (Tipifarnib)
JIMT-1 (breast, adherent) | 0.885 | < 4.99 | 0.874 | < 5.00 | 0.958 | < 5.99 | 0.406 | 6.27
JURL-MK1 (chronic myeloid leukaemia, suspension) | 0.027 | > 7.40 | 0.959 | < 5.00 | 0.975 | < 5.99 | 0.638 | 5.62
K2 (melanoma, adherent) | 0.958 | < 4.99 | 0.827 | 5.06 | 0.955 | < 5.99 | 0.752 | 5.17
KMH-2 (thyroid, adherent) | 0.974 | < 4.99 | 0.777 | 5.45 | 0.971 | < 5.99 | 0.423 | 6.20
KMRC-1 (kidney, adherent) | 0.957 | < 4.99 | 0.934 | < 5.00 | 0.983 | < 5.99 | 0.94 | < 4.80
KMRC-20 (kidney, adherent) | 0.963 | < 4.99 | 0.955 | < 5.00 | 0.956 | < 5.99 | 0.905 | < 4.80
KON (head and neck, adherent) | 0.987 | < 4.99 | 0.825 | 5.23 | 0.986 | < 5.99 | 0.283 | 6.61
KOSC-2 (head and neck, adherent) | 0.88 | < 4.99 | 0.856 | 5.06 | 0.969 | < 5.99 | 0.84 | 4.93
KP-2 (pancreas, adherent) | 0.977 | < 4.99 | 0.956 | < 5.00 | 0.985 | < 5.99 | 0.372 | 6.37
KP-3 (pancreas, adherent) | 0.913 | < 4.99 | 0.867 | < 5.00 | 0.982 | < 5.99 | 0.79 | 5.06
KP-4 (pancreas, adherent) | 0.986 | < 4.99 | 0.942 | < 5.00 | 0.979 | < 5.99 | 0.825 | 5.04
KU-19-19 (bladder, adherent) | 0.987 | < 4.99 | 0.71 | 5.61 | 0.984 | < 5.99 | 0.874 | 4.81
KYM-1 (rhabdomyosarcoma, adherent) | 0.988 | < 4.99 | 0.834 | 5.28 | 0.991 | < 5.99 | 0.95 | < 4.80
KYSE-50 (oesophagus, adherent) | 0.871 | 5.08 | 0.942 | < 5.00 | 0.982 | < 5.99 | 0.581 | 5.79
KYSE-70 (oesophagus, adherent) | 0.973 | < 4.99 | 0.705 | 5.60 | 0.985 | < 5.99 | 0.515 | 5.96
KYSE-140 (oesophagus, adherent) | 0.757 | 5.40 | 0.934 | < 5.00 | 0.981 | < 5.99 | 0.469 | 6.09
KYSE-150 (oesophagus, adherent) | 0.965 | < 4.99 | 0.974 | < 5.00 | 0.987 | < 5.99 | 0.686 | 5.49
KYSE-180 (oesophagus, adherent) | 0.846 | 5.16 | 0.955 | < 5.00 | 0.978 | < 5.99 | 0.671 | 5.53
KYSE-220 (oesophagus, adherent) | 0.953 | < 4.99 | 0.982 | < 5.00 | 0.963 | < 5.99 | 0.752 | 5.25
KYSE-270 (oesophagus, adherent) | 0.841 | 5.25 | 0.86 | 5.19 | 0.987 | < 5.99 | 0.245 | 6.67
